Assay results from EPA's CvTdb concentration-time database.
The source gives many values for each of these; only a part stands here.

Legend:
Test in all cases: concentration in plasma after dosing
Rat [1] = conditions: dosed: Potassium Perfluorobutane Sulfonate, 100 mg/kg, oral, Male, Harlan Sprague Dawley
Rat [2] = conditions: dosed: Potassium Perfluorobutane Sulfonate, 100 mg/kg, oral, Male, Harlan Sprague Dawley; remark: listed apart in the source
Rat [3] = conditions: dosed: Potassium Perfluorobutane Sulfonate, 100 mg/kg, oral, Male, Harlan Sprague Dawley; remark: listed apart in the source
Rat [4] = conditions: dosed: Potassium Perfluorobutane Sulfonate, 4 mg/kg, oral, Female, Harlan Sprague Dawley
Rat [5] = conditions: dosed: Potassium Perfluorobutane Sulfonate, 100 mg/kg, oral, Male, Harlan Sprague Dawley; remark: listed apart in the source
Rat [6] = conditions: 1 h; dosed: Potassium Perfluorobutane Sulfonate; 4 mg/kg; oral; Female; Harlan Sprague Dawley
Rat [7] = conditions: 1.5 h; dosed: Potassium Perfluorobutane Sulfonate; 20 mg/kg; oral; Female; Harlan Sprague Dawley
Rat [8] = conditions: 0.75 h; dosed: Potassium Perfluorobutane Sulfonate; 20 mg/kg; oral; Female; Harlan Sprague Dawley
Rat [9] = conditions: 1.5 h; dosed: Potassium Perfluorobutane Sulfonate; 100 mg/kg; oral; Female; Harlan Sprague Dawley
Rat [10] = conditions: dosed: Potassium Perfluorobutane Sulfonate, 4 mg/kg, oral, Female, Harlan Sprague Dawley; remark: listed apart in the source
Rat [11] = conditions: 1 h; dosed: Potassium Perfluorobutane Sulfonate; 20 mg/kg; oral; Female; Harlan Sprague Dawley
Rat [12] = conditions: 1 h; dosed: Potassium Perfluorobutane Sulfonate; 100 mg/kg; oral; Female; Harlan Sprague Dawley
Rat [13] = conditions: 0.5 h; dosed: Potassium Perfluorobutane Sulfonate; 20 mg/kg; oral; Male; Harlan Sprague Dawley
Rat [14] = conditions: 6 h; dosed: Potassium Perfluorobutane Sulfonate; 20 mg/kg; oral; Male; Harlan Sprague Dawley
Rat [15] = conditions: 6 h; dosed: Potassium Perfluorobutane Sulfonate; 20 mg/kg; oral; Male; Harlan Sprague Dawley; remark: listed apart in the source
Rat [16] = conditions: 3 h; dosed: Potassium Perfluorobutane Sulfonate; 20 mg/kg; oral; Female; Harlan Sprague Dawley
Rat [17] = conditions: dosed: Dibromoacetic acid, 25 mg/kg, iv, Female, F344
Rat [18] = conditions: dosed: Dibromoacetic acid, 25 mg/kg, iv, Female, F344; remark: listed apart in the source
Rat [19] = conditions: dosed: Dibromoacetic acid, 125 mg/kg, oral, Male, F344
Rat [20] = conditions: dosed: Dibromoacetic acid, 125 mg/kg, oral, Male, F344; remark: listed apart in the source
Rat [21] = conditions: dosed: Dibromoacetic acid, 25 mg/kg, iv, Female, F344; remark: listed apart in the source
Rat [22] = conditions: dosed: Dibromoacetic acid, 25 mg/kg, iv, Female, F344; remark: listed apart in the source
Rat [23] = conditions: dosed: Dibromoacetic acid, 50 mg/kg, oral, Male, Harlan Sprague Dawley
Rat [24] = conditions: dosed: Dibromoacetic acid, 125 mg/kg, oral, Female, Harlan Sprague Dawley
Rat [25] = conditions: dosed: Dibromoacetic acid, 25 mg/kg, iv, Female, F344; remark: listed apart in the source
Rat [26] = conditions: dosed: Dibromoacetic acid, 125 mg/kg, oral, Male, F344; remark: listed apart in the source
Rat [27] = conditions: dosed: Dibromoacetic acid, 50 mg/kg, oral, Male, Harlan Sprague Dawley; remark: listed apart in the source
Rat [28] = conditions: dosed: Dibromoacetic acid, 25 mg/kg, iv, Female, F344; remark: listed apart in the source
Rat [29] = conditions: dosed: Dibromoacetic acid, 25 mg/kg, iv, Male, F344
Rat [30] = conditions: dosed: Dibromoacetic acid, 25 mg/kg, iv, Male, F344; remark: listed apart in the source
Rat [31] = conditions: dosed: Dibromoacetic acid, 125 mg/kg, oral, Female, Harlan Sprague Dawley; remark: listed apart in the source
Rat [32] = conditions: dosed: Dibromoacetic acid, 125 mg/kg, oral, Female, Harlan Sprague Dawley; remark: listed apart in the source
Rat [33] = conditions: 5 min; dosed: Dibromoacetic acid; 125 mg/kg; oral; Male; F344
Rat [34] = conditions: dosed: Dibromoacetic acid, 125 mg/kg, oral, Female, Harlan Sprague Dawley; remark: listed apart in the source
Rat [35] = conditions: 10 min; dosed: Dibromoacetic acid; 125 mg/kg; oral; Male; F344
Rat [36] = conditions: 3 h; dosed: Dibromoacetic acid; 50 mg/kg; oral; Female; F344

O=S(=O)([O-])C(F)(F)C(F)(F)C(F)(F)C(F)(F)F.[K+] [Potassium Perfluorobutane Sulfonate]
Conditions	concentration in plasma [ng/mL]
Rat [1], 0.5 h	235000
Rat [1], 9 h	42000
Rat [2], 1 h	207000
Rat [2], 24 h	1610
Rat [3], 1.5 h	166000
Rat [3], 48 h	41.3
Rat [4], 0.75 h	11100
Rat [4], 12 h	51.5
Rat [5], 0.5 h	235000
Rat [5], 9 h	22600
Rat [10], 0.75 h	11300
Rat [10], 12 h	179

Conditions	concentration in plasma [ng/mL]
Rat [6]	8390
Rat [7]	25400
Rat [8]	48000
Rat [9]	96500
Rat [11]	30300
Rat [12]	125000
Rat [13]	39600
Rat [14]	37600
Rat [15]	36300
Rat [16]	10100

O=C(O)C(Br)Br [Dibromoacetic acid]
Conditions	concentration in plasma [ng/mL]
Rat [17], 1 h	3200
Rat [17], 20 min	22100
Rat [18], 7 min	41600
Rat [18], 50 min	4500
Rat [19], 1 h	72900
Rat [19], 2 h	30800
Rat [20], 0.5 h	70000
Rat [20], 6 h	286
Rat [21], 0.75 h	3560
Rat [21], 5 min	42500
Rat [22], 7 min	37400
Rat [22], 50 min	3310
Rat [23], 0.75 h	24500
Rat [23], 4 h	1440
Rat [24], 3 h	7150
Rat [24], 20 min	92900
Rat [25], 2 min	61300
Rat [25], 40 min	4900
Rat [26], 0.75 h	74000
Rat [26], 4 h	5710
Rat [27], 1.5 h	14000
Rat [27], 20 min	24100
Rat [28], 0.2 h	29100
Rat [28], 55 min	2750
Rat [29], 1 h	2340
Rat [29], 20 min	21400
Rat [30], 2 min	81500
Rat [30], 40 min	6510
Rat [31], 0.5 h	74800
Rat [31], 6 h	2530
Rat [32], 1 h	71600
Rat [32], 2 h	36700
Rat [34], 1 h	101000
Rat [34], 2 h	33600

Conditions	concentration in plasma [ng/mL]
Rat [33]	50200
Rat [35]	32500
Rat [36]	766
